# The list shows a part of the results. Most values come without repeats; read them as rough.
# System: SkMel5
# Assay: cell count relative to DMSO control; melanoma cells; higher = more viable cells
# Conditions: library dose: standard library concentration; 72 h
# 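Note: cells treated in 1,536-well plates, then fixed and DAPI-stained, with nuclei counted from automated high-throughput microscope images.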
row,SMILES,cell count
1,"C[C@@H]1CCN(C(=O)CC#N)C[C@@H]1N(C)c1ncnc2[nH]ccc12 + Oc1nc(-c2ccc(C(F)(F)F)cc2)nc2c1CSCC2 [XAV939] (first compound 5 µM, partner dose 10 µM)",71.3%
2,"O=C(Nc1cccc(Cl)c1)Nc1ncc(CCNc2ncnc3ccsc23)s1 + CCCCCCCCCCCC1=C(O)C(=O)C=C(O)C1=O [Embelin] (first compound 0.004 µM, partner dose 6 µM)",95.4%
3,"COc1cc(Nc2ncc(F)c(Nc3ccc4c(n3)NC(=O)C(C)(C)O4)n2)cc(OC)c1OC [Tamatinib] + O=C(Nc1ccccc1)c1cc([N+](=O)[O-])ccc1Cl [GW9662] (first compound 2 µM, partner dose 10 µM)",51.3%
4,"Cn1cncc1[C@@](N)(c1ccc(Cl)cc1)c1ccc2c(c1)c(-c1cccc(Cl)c1)cc(=O)n2C [tipifarnib] + N#Cc1c(O)c2c(-c3ccc(-c4ccccc4O)cc3)csc2[nH]c1=O [A769662] (first compound 0.05 µM, partner dose 10 µM)",76.7%
5,"O=C(Nc1cccc(Cl)c1)Nc1ncc(CCNc2ncnc3ccsc23)s1 + COc1cc(N2CCC(N3CCN(C)CC3)CC2)ccc1Nc1ncc(Cl)c(Nc2ccccc2S(=O)(=O)C(C)C)n1 [NVP-TAE684] (first compound 0.004 µM, partner dose 0.4 µM)",70.1%

# — the supplement of paper PMC4604168 (melanoma cell lines)
